Results published in patent EP0423777A2, “Method of treating gastrointestinal motility disorders” (G.D. Searle & Co., priority 1989, dated 1991).
Structures can show the parent of a compound that is named as a salt. At least one read-out could not be matched to a standard name with certainty.

Columns and labels:
Male Charles River Rats = test: Rat gastric emptying protocol (enhancement of gastric emptying of a test meal); type: in vivo; details: 30 minutes before the test meal
Mongrel dogs = test: Antral motility in conscious fasted dogs (strain gauge force transducers on the gastric antrum); type: in vivo, dog; details: given at end of Phase III of the control MMC cycle
[1] = 10 mpk intraperitoneally (IP), measured sixty minutes after the meal
[2] = 3 milligrams per kilogram, intraperitoneally

| SMILES | Rat Gastric Emptying (percentage increase in gastric emptying) (Male Charles River Rats; [1]) | Dog Fasted Antral Motility Duration (Mongrel dogs; Dose 3.0 mpk intravenously) [min] | Dog Fasted Antral Motility Duration (Mongrel dogs; Dose 10.0 mpk intravenously) [min] | Rat Gastric Emptying (percentage increase in gastric emptying) (Male Charles River Rats; [2]) | Dog Fasted Antral Motility Duration (Mongrel dogs; Dose 0.3 mpk intravenously) [min] |
| --- | --- | --- | --- | --- | --- |
| OC[C@H]1O[C@@H](n2cnc3c(NCCN4CCCCC4)ncnc32)[C@H](O)[C@@H]1O [Example 9, N-[2-(1-piperidinyl)ethyl]adenosine] | 14.3% | – | – | – | – |
| CCN(CC)CCCNc1ncnc2c1ncn2[C@@H]1O[C@H](CO)[C@@H](O)[C@H]1O [Example 3, N-[3-(diethylamino)propyl]adenosine] | 16.7% | 60 | 60 | – | – |
| CC[N+](C)(CC)CCNc1ncnc2c1ncn2[C@@H]1O[C@H](CO)[C@@H](O)[C@H]1O [Example 12, N,N-diethyl-N-methyl-2-[(9β-D-ribofuranosyl-9H-purin-6-yl)amino]ethaneammonium iodide] | 4.7% | – | – | – | – |
| C[C@H](Cc1ccccc1)Nc1ncnc2c1ncn2[C@@H]1O[C@H](CO)[C@@H](O)[C@H]1O [Example 17] | – | – | – | 34.6 (----) % | – |
| OC[C@H]1O[C@@H](n2cnc3c(NCCc4cnc[nH]4)ncnc32)[C@H](O)[C@@H]1O [Example 5, N-[2-(1H imidazol-4-yl)ethyl]adenosine, hydrochloride] | 29.5% | 52 | – | – | 40 |
| OC[C@H]1O[C@@H](n2cnc3c(NC4CCN(Cc5ccccc5)CC4)ncnc32)[C@H](O)[C@@H]1O [Example 1, N-[1-(phenylmethyl)-4-piperidinyl]adenosine] | -7.1 (----) % | – | – | – | – |
| Cl.OC[C@H]1O[C@@H](n2cnc3c(NCCN4CC=CC4)ncnc32)[C@H](O)[C@@H]1O [Example 13, N-[2-(2,5-dihydro-1H-pyrrol-1-yl)ethyl]adenosine, monohydrochloride] | – | 60 | – | 15.5% | – |
| CCN(CC)CCN(C)c1ncnc2c1ncn2[C@@H]1O[C@H](CO)[C@@H](O)[C@H]1O [Example 4, N-[2-(diethylamino)ethyl]-N-methyladenosine] | -4.1% | 30 | – | – | – |
| CCN(CC)CCNc1ncnc2c1ncn2[C@@H]1O[C@H](CO)[C@@H](O)[C@H]1O [Example 2, N-[2-(diethylamino)ethyl]adenosine] | 18.3% | 48 | 60 | – | – |
| Cl.OC[C@H]1O[C@@H](n2cnc3c(NCCn4ccnc4)ncnc32)[C@H](O)[C@@H]1O [Example 14, N-[2-(1H-imidazol-1-yl)ethyl]adenosine, hydrochloride] | 20.2% | 60 | – | – | 35 |
| Cc1nccn1CCNc1ncnc2c1ncn2[C@@H]1O[C@H](CO)[C@@H](O)[C@H]1O [Example 15, N-[2-(2-methyl-1H-imidazol-1-yl)ethyl]adenosine, hydrochloride] | – | 60 | – | 6.7% | – |
| CCCN(CCC)CCNc1ncnc2c1ncn2[C@@H]1O[C@H](CO)[C@@H](O)[C@H]1O [Example 10, N-[2-(dipropylamino)ethyl]adenosine] | 0.8% | – | – | – | – |
| COC1CN(CCCOc2ccc(F)cc2)CCC1Nc1ncnc2c1ncn2C1OC(CO)C(O)C1O (stereo not drawn) [Example 7, cis N-1-[3-(4-fluorophenoxy)propyl]-3-methoxy-4-piperidinyl]adenosine] | 2.0% | – | – | – | – |
| Cl.OC[C@H]1O[C@@H](n2cnc3c(NCCN4CCCC4)ncnc32)[C@H](O)[C@@H]1O [Example 6, N-[2-(1-pyrrolidinyl)ethyl]adenosine, monohydrochloride] | 24.3% | – | – | – | – |
| OC[C@H]1O[C@@H](n2cnc3c(NC4CCCCC4)ncnc32)[C@H](O)[C@@H]1O [Example 18] | – | – | – | 27.8 (----) % | – |
| CN1[C@@H]2CC[C@H]1C[C@@H](Nc1ncnc3c1ncn3[C@@H]1O[C@H](CO)[C@@H](O)[C@H]1O)C2 [Example 8, endo-N-(8-methyl-8 azabicyclo[3.2.1]octan-3-yl)adenosine, monohydrochloride] | 16.7% | 49 | 60 | – | – |
| CN1[C@@H]2CC[C@H]1C[C@H](Nc1ncnc3c1ncn3[C@@H]1O[C@H](CO)[C@@H](O)[C@H]1O)C2 [Example 11, exo-N-(8-methyl-8-azabicyclo[3.2.1]octan-3-yl)adenosine, monohydrochloride] | 15.1 (----) % | 52 | 60 | – | – |
